From the supplement of paper PMC10441789
The other results are listed elsewhere or left out. Antibody binding of pooled human sera (four to six donors per pool; dilution not stated) to peptides of the Trypanosoma cruzi antigen TSSA on microarrays. Quantile-normalised fluorescence in arbitrary units, mean of duplicate arrays; higher = more binding. No active / inactive call. The uninfected pools are read here as the healthy donors of the same country. The strongest signals lie near the top of the scale (about 60,000).

Tests used:
Assay in all cases: antibody binding signal (normalised fluorescence) (arbitrary fluorescence units); higher = stronger serum antibody binding to peptide
[1] = tested on: pooled sera of chronic Chagas disease patients, Argentina
Experimental: (§1)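 Microarray of 15-residue peptides over residues 30-55 of Trypanosoma cruzi TSSAII, each with 1 to 10 substitutions at naturally variable positions, probed with one serum pool per country.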

[2] = tested on: pooled sera of chronic Chagas disease patients, Bolivia
Experimental: as §1

[3] = tested on: pooled sera of chronic Chagas disease patients, Brazil
Experimental: as §1

[4] = tested on: pooled sera of chronic Chagas disease patients, Colombia
Experimental: as §1

[5] = tested on: pooled sera of chronic Chagas disease patients, Mexico
Experimental: as §1

[6] = tested on: pooled sera of chronic Chagas disease patients, USA
Experimental: as §1

[7] = tested on: pooled sera of uninfected people, Argentina
Experimental: as §1

[8] = tested on: pooled sera of uninfected people, Bolivia
Experimental: as §1

[9] = tested on: pooled sera of uninfected people, Brazil
Experimental: as §1

[10] = tested on: pooled sera of uninfected people, Colombia
Experimental: as §1

[11] = tested on: pooled sera of uninfected people, Mexico
Experimental: as §1

[12] = tested on: pooled sera of uninfected people, USA
Experimental: as §1

| Sequence | antibody binding signal [1] | antibody binding signal [2] | antibody binding signal [3] | antibody binding signal [4] | antibody binding signal [5] | antibody binding signal [6] | antibody binding signal [7] | antibody binding signal [8] | antibody binding signal [9] | antibody binding signal [10] | antibody binding signal [11] | antibody binding signal [12] |
| --- | --- | --- | --- | --- | --- | --- | --- | --- | --- | --- | --- | --- |
| TENKAAAGEAPSQSG | 28100 | 15900 | 24600 | 223 | 175 | 12900 | 73.4 | 123 | 108 | 64 | 101 | 109 |
| SGTDKKTAAGETPSQ | 251 | 718 | 2470 | 2790 | 373 | 1120 | 169 | 288 | 282 | 764 | 303 | 144 |
| ENKAATGETPSQPGA | 9160 | 7510 | 44200 | 284 | 174 | 14400 | 122 | 878 | 303 | 222 | 216 | 203 |
| KDKKTAAGGAPSPPG | 162 | 189 | 317 | 2400 | 219 | 379 | 122 | 102 | 100 | 164 | 93.3 | 127 |
| TEKKTAAGEAPSQPG | 7320 | 21800 | 37300 | 592 | 569 | 7750 | 314 | 278 | 262 | 1550 | 261 | 188 |
| TDKKPATGETPSQPG | 29100 | 25300 | 40300 | 278 | 142 | 22000 | 224 | 562 | 374 | 246 | 1550 | 180 |
| KKTAAGETPSQPGAS | 237 | 573 | 19400 | 250 | 241 | 1130 | 228 | 370 | 133 | 457 | 97 | 313 |
| NKPATGGTPSQPGAS | 514 | 835 | 19300 | 519 | 386 | 713 | 684 | 1390 | 895 | 580 | 662 | 1390 |
| SGTEKKPAAGETPSP | 1750 | 837 | 6360 | 767 | 548 | 2350 | 97.6 | 756 | 305 | 169 | 243 | 667 |
| ISTPPSGKENKPAAG | 41100 | 5250 | 24800 | 363 | 11400 | 12800 | 3500 | 1880 | 200 | 629 | 217 | 738 |
| KAATGETPSQSGASS | 4970 | 5720 | 23100 | 182 | 135 | 9460 | 308 | 321 | 206 | 197 | 313 | 191 |
| KDNKAATGGAPSPSG | 305 | 222 | 408 | 336 | 234 | 1300 | 242 | 792 | 116 | 164 | 80.2 | 83.6 |
| SGKDKKAAAGEAPSQ | 565 | 3070 | 2190 | 1500 | 809 | 7110 | 126 | 85.8 | 103 | 228 | 81.5 | 83.3 |
| TPPSGKDNKAAAGGA | 362 | 416 | 1140 | 1280 | 20000 | 2450 | 654 | 679 | 169 | 182 | 112 | 529 |
| KEKKTAAGGAPSPPG | 164 | 219 | 191 | 2420 | 278 | 541 | 126 | 92.3 | 84.4 | 187 | 85.4 | 101 |
| SGTDNKTATGEAPSQ | 13700 | 29300 | 41000 | 172 | 211 | 23500 | 179 | 532 | 1140 | 195 | 113 | 210 |
| TEKKAAAGETPSQSG | 719 | 484 | 2430 | 436 | 447 | 2590 | 111 | 273 | 346 | 719 | 454 | 214 |
| KENKPAAGGAPSQSG | 170 | 209 | 2200 | 675 | 349 | 285 | 189 | 148 | 138 | 93.3 | 88.3 | 120 |
| PSGKEKKAATGETPS | 5530 | 2220 | 9230 | 4700 | 6880 | 14000 | 473 | 593 | 133 | 235 | 98.8 | 152 |
| GKDNKTATGETPSQP | 5690 | 3110 | 32800 | 8470 | 7720 | 9440 | 358 | 331 | 267 | 405 | 219 | 225 |
| KEKKPATGGAPSQSG | 530 | 310 | 268 | 322 | 374 | 634 | 223 | 194 | 106 | 139 | 144 | 299 |
| SSTPPSGKENKPATG | 18300 | 8650 | 24500 | 1020 | 8770 | 13800 | 3710 | 2360 | 198 | 711 | 257 | 629 |
| TDNKTATGETPSPPG | 432 | 1540 | 3190 | 244 | 167 | 7930 | 107 | 376 | 226 | 119 | 140 | 1740 |
| SGTEKKPATGGAPSQ | 8300 | 591 | 7140 | 2130 | 3340 | 2930 | 458 | 1790 | 626 | 208 | 264 | 923 |
| PSGKEKKTATGGAPS | 7830 | 2150 | 5180 | 9070 | 9150 | 6260 | 358 | 309 | 265 | 117 | 173 | 137 |

| Sequence | antibody binding signal [1] | antibody binding signal [2] | antibody binding signal [3] | antibody binding signal [4] | antibody binding signal [5] | antibody binding signal [6] | antibody binding signal [7] | antibody binding signal [8] | antibody binding signal [9] | antibody binding signal [10] | antibody binding signal [11] | antibody binding signal [12] |
| --- | --- | --- | --- | --- | --- | --- | --- | --- | --- | --- | --- | --- |
| GTENKTATGEAPSQP | 29400 | 37100 | 42200 | 1350 | 2120 | 22700 | 177 | 274 | 222 | 235 | 163 | 89.5 |
| TEKKTATGGTPSPPG | 1020 | 551 | 922 | 4140 | 893 | 1990 | 311 | 218 | 470 | 1250 | 246 | 214 |
| KDNKPATGGAPSPPG | 545 | 2240 | 2750 | 362 | 255 | 2030 | 546 | 852 | 152 | 159 | 212 | 140 |
| KAATGGTPSQPGASS | 439 | 252 | 590 | 882 | 277 | 217 | 468 | 103 | 205 | 116 | 336 | 126 |
| PSGKDKKTATGGAPS | 2560 | 369 | 1920 | 3890 | 3250 | 3520 | 219 | 226 | 98.3 | 106 | 104 | 104 |
| STPPSGKENKTATGE | 18600 | 30200 | 12800 | 543 | 3270 | 4320 | 1920 | 1570 | 287 | 1100 | 285 | 254 |
| PPSGTENKTATGGTP | 41100 | 46100 | 48200 | 583 | 4810 | 13100 | 1160 | 550 | 594 | 695 | 899 | 745 |
| EKKTAAGETPSQPGA | 616 | 687 | 25500 | 524 | 471 | 4110 | 164 | 1490 | 139 | 1180 | 186 | 1060 |
| GTENKPATGEAPSQS | 52100 | 45400 | 49600 | 1810 | 3860 | 44800 | 1190 | 1620 | 443 | 152 | 235 | 169 |
| KAATGGAPSPPGASS | 689 | 192 | 330 | 304 | 358 | 861 | 430 | 154 | 104 | 122 | 97.2 | 132 |
| DKKTAAGGAPSPPGA | 373 | 1030 | 283 | 7060 | 882 | 928 | 252 | 121 | 132 | 266 | 370 | 151 |
| GKEKKPAAGGTPSPP | 1360 | 240 | 228 | 2420 | 968 | 1450 | 96.9 | 85.5 | 449 | 134 | 75.1 | 288 |
| PSGKENKPATGGAPS | 8590 | 4820 | 11000 | 9210 | 9350 | 9440 | 7440 | 4180 | 168 | 319 | 565 | 293 |
| GKENKPATGGTPSPP | 1990 | 682 | 5970 | 3050 | 4150 | 10600 | 947 | 531 | 204 | 289 | 224 | 154 |
| DNKAAAGETPSQPGA | 1750 | 4840 | 38700 | 217 | 200 | 1860 | 125 | 810 | 234 | 231 | 301 | 140 |
| KTATGGAPSQPGASS | 564 | 345 | 791 | 310 | 471 | 228 | 578 | 122 | 150 | 88.3 | 193 | 150 |
| ENKTATGEAPSPSGA | 14100 | 34100 | 18700 | 194 | 228 | 24300 | 161 | 121 | 253 | 144 | 109 | 103 |
| ENKAAAGGAPSQPGA | 428 | 3360 | 16300 | 3430 | 386 | 2250 | 305 | 228 | 198 | 254 | 281 | 383 |
| STPPSGTEKKPAAGE | 47300 | 40900 | 44200 | 356 | 24200 | 12500 | 1420 | 508 | 911 | 208 | 206 | 241 |
| GKDKKTAAGETPSPS | 523 | 287 | 191 | 909 | 700 | 1490 | 138 | 149 | 87.4 | 211 | 140 | 437 |
| TENKTATGEAPSQSG | 19900 | 32700 | 23000 | 104 | 268 | 22700 | 221 | 102 | 194 | 128 | 242 | 132 |
| SGTDNKPAAGETPSP | 4860 | 1030 | 43700 | 2670 | 281 | 2970 | 123 | 650 | 287 | 253 | 325 | 531 |
| SGKEKKPAAGGTPSP | 8400 | 927 | 4310 | 6090 | 7640 | 5670 | 173 | 144 | 845 | 124 | 91.8 | 235 |
| TENKTAAGGAPSPSG | 26500 | 629 | 377 | 5710 | 634 | 395 | 439 | 192 | 687 | 209 | 459 | 246 |
| ISTPPSGTDNKAAAG | 54400 | 49000 | 56100 | 4070 | 32000 | 20000 | 1240 | 739 | 2240 | 226 | 428 | 390 |
